Measured values as given in patent US20220348631A1 (INSTIL BIO UK, published 2022).

Molecular target: T1, carcinoembryonic antigen (CEA) on LoVo, LS174T or H508 tumor cells (UniProt P06731 35-702, limits assumed)
T1 sequence (looked up): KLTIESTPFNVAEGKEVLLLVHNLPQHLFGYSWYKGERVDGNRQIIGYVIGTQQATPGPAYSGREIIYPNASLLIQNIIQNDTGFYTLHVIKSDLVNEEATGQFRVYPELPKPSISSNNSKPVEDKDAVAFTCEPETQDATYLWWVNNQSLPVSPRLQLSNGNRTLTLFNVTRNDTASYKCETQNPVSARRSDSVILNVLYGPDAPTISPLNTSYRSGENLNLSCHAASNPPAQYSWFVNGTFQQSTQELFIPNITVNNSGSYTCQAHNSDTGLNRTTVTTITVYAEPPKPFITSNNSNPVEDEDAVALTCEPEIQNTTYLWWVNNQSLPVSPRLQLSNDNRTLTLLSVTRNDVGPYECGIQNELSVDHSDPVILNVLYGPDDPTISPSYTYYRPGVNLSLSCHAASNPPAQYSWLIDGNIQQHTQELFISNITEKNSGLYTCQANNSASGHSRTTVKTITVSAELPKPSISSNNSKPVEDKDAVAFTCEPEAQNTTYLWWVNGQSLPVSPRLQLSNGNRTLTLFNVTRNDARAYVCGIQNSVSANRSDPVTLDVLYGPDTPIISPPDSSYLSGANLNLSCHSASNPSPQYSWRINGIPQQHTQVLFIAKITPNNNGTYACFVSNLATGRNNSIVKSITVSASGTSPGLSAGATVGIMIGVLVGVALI
Experiment: cell-based or functional assay

B1: MFE23.CD28 CoStAR (MFE23 scFv fused to full length human CD28) (receptor)
chain: QVQLQQSGAELVRSGTSVKLSCTASGFNIKDSYMHWLRQGPEQGLEWIGWIDPENGDTEYAPKFQGKATFTTDTSSNTAYLQLSSLTSEDTAVYYCNEGTPTGPYYFDYWGQGTTVTVSSGGGGSGGGGSGGGGSENVLTQSPAIMSASPGEKVTITCSASSSVSYMHWFQQKPGTSPKLWIYSTSNLASGVPARFSGSGSGTSYSLTISRMEAEDAATYYCQQRSSYPLTFGAGTKLELKR[about 150 residues not written out]FWVLVVVGGVLACYSLLVTVAFIIFWVRSKRSRLLHSDYMNMTPRRPGPTRKHYQPYAPPRDFAAYRS
  T-cell expansion over 18 days with LoVo-OKT3 and IL-2: 20 fold
